Laboratory results taken from PMC4336329 (PLoS ONE, 2015).
The campaign covered roughly 310,000 compounds. About 14,000 (4.5%) showed an effect of 50% or more. The effect is printed as a negative number. Some of the results follow.

biological target: human ether-à-go-go-related gene (hERG) potassium channel (human, UniProt Q12809); assay: primary screen, population patch clamp on CHO cells stably expressing hERG
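Also: peak tail current of the secondary pulse compared with the same well before compound.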

Sequence of human ether-à-go-go-related gene (hERG) potassium channel (Q12809 whole entry, looked up): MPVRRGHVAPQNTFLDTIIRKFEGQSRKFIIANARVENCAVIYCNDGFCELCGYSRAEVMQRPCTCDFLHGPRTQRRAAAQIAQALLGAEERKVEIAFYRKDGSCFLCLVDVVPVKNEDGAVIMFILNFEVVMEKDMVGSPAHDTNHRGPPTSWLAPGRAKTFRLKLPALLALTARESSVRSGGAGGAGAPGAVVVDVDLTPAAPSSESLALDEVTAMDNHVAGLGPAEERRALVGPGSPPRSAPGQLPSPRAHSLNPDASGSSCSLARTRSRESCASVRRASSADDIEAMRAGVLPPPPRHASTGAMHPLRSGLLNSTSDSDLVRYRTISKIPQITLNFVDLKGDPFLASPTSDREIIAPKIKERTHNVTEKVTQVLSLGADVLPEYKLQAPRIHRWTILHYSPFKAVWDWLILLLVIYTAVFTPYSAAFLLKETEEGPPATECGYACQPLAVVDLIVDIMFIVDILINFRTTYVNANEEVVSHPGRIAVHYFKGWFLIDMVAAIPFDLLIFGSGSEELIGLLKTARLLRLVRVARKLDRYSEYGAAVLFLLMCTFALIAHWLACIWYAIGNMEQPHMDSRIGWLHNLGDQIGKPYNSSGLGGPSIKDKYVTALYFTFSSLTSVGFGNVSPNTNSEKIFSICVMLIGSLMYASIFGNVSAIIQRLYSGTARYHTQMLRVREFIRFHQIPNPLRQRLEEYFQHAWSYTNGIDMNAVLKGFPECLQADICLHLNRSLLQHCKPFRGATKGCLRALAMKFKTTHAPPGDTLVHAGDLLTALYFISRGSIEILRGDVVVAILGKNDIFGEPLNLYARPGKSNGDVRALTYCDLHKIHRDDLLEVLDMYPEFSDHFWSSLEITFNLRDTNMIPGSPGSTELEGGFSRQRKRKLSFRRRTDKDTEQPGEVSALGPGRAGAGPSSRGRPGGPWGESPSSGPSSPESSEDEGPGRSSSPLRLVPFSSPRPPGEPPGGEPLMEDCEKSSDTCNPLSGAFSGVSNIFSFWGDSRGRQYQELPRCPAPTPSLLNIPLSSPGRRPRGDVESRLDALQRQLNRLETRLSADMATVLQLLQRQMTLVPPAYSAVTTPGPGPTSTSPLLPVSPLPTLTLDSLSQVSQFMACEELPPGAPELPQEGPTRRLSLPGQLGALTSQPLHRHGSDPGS

With `CC(=O)OC[C@H]1O[C@@H](O/N=C/[C@@H](C)[C@H](OCc2ccccc2)C(C)C)[C@H](OC(C)=O)[C@@H](OC(C)=O)[C@@H]1OC(C)=O` as the compound, how does the “hERG current change (%, negative = inhibition) at 10uM” value read?
Its value is -22.4%.

Which “hERG current change (%, negative = inhibition) at 10uM” value does the source give for `COC(=O)C1=C(C)NC(=O)NC1c1ccc(OC(=O)c2ccco2)cc1` (centres unmarked) here?
Its value is -1.19%.

For `CCN1CC(c2ccccc2)C(c2ccc(Cl)cc2)=N1` (centres unmarked), which “hERG current change (%, negative = inhibition) at 10uM” value is on record?
The value was -8.97%.

`CC(C)c1nnc(SCC(=O)NCc2ccc3c(c2)OCO3)n1C` was tested. Which “hERG current change (%, negative = inhibition) at 10uM” value did it give?
Its value is -5.15%.

Which “hERG current change (%, negative = inhibition) at 10uM” value does the source give for `CCCCc1ccc(NC(=O)CSC2=NN3CCCC(=O)N=C3S2)cc1` here?
The value was 2.28%.

`CCC(=O)Nc1nonc1-c1nc2ccccc2n1Cc1cccc2ccccc12` was tested. Which “hERG current change (%, negative = inhibition) at 10uM” value did it give?
The value was 3.1%.

Which “hERG current change (%, negative = inhibition) at 10uM” value does the source give for `Cc1cc(=O)[nH]c(SCC(=O)C23CC4CC(CC(C4)C2)C3)c1C#N` here?
Its value is 12.5%.

Which “hERG current change (%, negative = inhibition) at 10uM” value does the source give for `CN(C(=O)COC(=O)c1ccc(Cl)cc1N)C1CCCCC1` here?
Its value is 12.3%.

With `N/C(=N\OC(=O)c1cccc(Cn2cc(C(F)(F)F)ccc2=O)c1)c1ccccc1` as the compound, how does the “hERG current change (%, negative = inhibition) at 10uM” value read?
The value was -2.75%.

For `COc1ccccc1NS(=O)(=O)c1ccc(Br)s1`, which “hERG current change (%, negative = inhibition) at 10uM” value is on record?
Its value is -32.1%.

How did the “hERG current change (%, negative = inhibition) at 10uM” value turn out when `Fc1ccc(-c2cc(-c3cccs3)cc(-c3ccccc3)n2)cc1` was run?
The value was 11.4%.

For `COc1ccc(C(=O)NC2CC2)cc1OC1CCN(Cc2ccc(F)cc2)CC1`, which “hERG current change (%, negative = inhibition) at 10uM” value is on record?
The value was -81.8%.

Which “hERG current change (%, negative = inhibition) at 10uM” value does the source give for `O=C(C1=C(O)C(=O)N(CCc2ccccc2)C1c1cccnc1)c1ccco1` (centres unmarked) here?
The value was 1.06%.

How did the “hERG current change (%, negative = inhibition) at 10uM” value turn out when `CCC(=O)c1ccc(OCC(=O)NCC2COc3ccccc3O2)cc1` (centres unmarked) was run?
The value was -25.5%.

`CCN(CC)S(=O)(=O)c1cc(C(=O)OCC(=O)Nc2cccc(C)c2C)ccc1F` was tested. Which “hERG current change (%, negative = inhibition) at 10uM” value did it give?
The value was -10.3%.

`CN(c1cccc(NC(=O)CCSc2ccccc2)c1)S(C)(=O)=O` was tested. Which “hERG current change (%, negative = inhibition) at 10uM” value did it give?
The value was -28.8%.

Which “hERG current change (%, negative = inhibition) at 10uM” value does the source give for `COc1cccc(OC)c1C(=O)n1nc(C)cc1C` here?
Its value is 9.59%.

With `CC1(C)SC2c3ccccc3C(=O)N2[C@@H]1C(=O)NCc1ccco1` (some centres unmarked) as the compound, how does the “hERG current change (%, negative = inhibition) at 10uM” value read?
Its value is 8.48%.

`O=C1c2ccccc2C(Nc2ccc3c(c2)OCCO3)N1c1ccccn1` (centres unmarked) was tested. Which “hERG current change (%, negative = inhibition) at 10uM” value did it give?
Its value is -6.4%.

How did the “hERG current change (%, negative = inhibition) at 10uM” value turn out when `Cc1cc(C)c(C(=O)COC(=O)CCNS(=O)(=O)c2c(Cl)cccc2Cl)cc1C` was run?
The value was 13%.

`CC1(C)S[C@@H]2[C@H](N=CN3CCCCCC3)C(=O)N2[C@H]1C(=O)O` was tested. Which “hERG current change (%, negative = inhibition) at 10uM” value did it give?
Its value is 6.15%.

How did the “hERG current change (%, negative = inhibition) at 10uM” value turn out when `CCCCC(CC(O)COCCC)c1n[nH]c(=S)n1-c1ccccc1` (centres unmarked) was run?
Its value is 6.88%.

Which “hERG current change (%, negative = inhibition) at 10uM” value does the source give for `COC(=O)CC1=C(C(=O)OC)C(c2ccc3c(c2Cl)OCO3)C(C#N)=C(N)O1` (centres unmarked) here?
The value was -24.7%.

How did the “hERG current change (%, negative = inhibition) at 10uM” value turn out when `CC1CCCCN1Cc1c(O)ccc2c(=O)c(-c3ccc(Cl)cc3Cl)coc12` (centres unmarked) was run?
The value was -60.7%.

`Cc1ccccc1CC1(CO)CCCN(Cc2ccn[nH]2)C1` (centres unmarked) was tested. Which “hERG current change (%, negative = inhibition) at 10uM” value did it give?
Its value is 1.25%.

Which “hERG current change (%, negative = inhibition) at 10uM” value does the source give for `CCOC(=O)c1ccc(-c2cc(C)no2)[nH]1` here?
The value was 11.3%.

For `Cc1ccc(NC(=O)Cn2c(=O)cnc3ccccc32)cc1S(=O)(=O)N1CCOCC1`, which “hERG current change (%, negative = inhibition) at 10uM” value is on record?
Its value is -30.4%.

For `O=C(CCCc1nc(-c2ccccc2Cl)no1)NC1CCCCC1`, which “hERG current change (%, negative = inhibition) at 10uM” value is on record?
The value was 1.18%.

With `O=C(COc1cccc(Cl)c1)NNC(=S)Nc1ccccc1` as the compound, how does the “hERG current change (%, negative = inhibition) at 10uM” value read?
The value was 15.8%.

With `CCCC(=O)NC1CCCc2c1cnn2-c1ccc(C)c(C)c1` (centres unmarked) as the compound, how does the “hERG current change (%, negative = inhibition) at 10uM” value read?
Its value is -72%.

`O=S1(=O)CC(O)C(Nc2ccccc2Cl)C1` (centres unmarked) was tested. Which “hERG current change (%, negative = inhibition) at 10uM” value did it give?
Its value is 3.34%.

`CCn1c(=O)c(=O)n(CC)c2cc(S(=O)(=O)Nc3cccc(OC)c3)ccc21` was tested. Which “hERG current change (%, negative = inhibition) at 10uM” value did it give?
Its value is 0.962%.

How did the “hERG current change (%, negative = inhibition) at 10uM” value turn out when `O=C(NCCCn1ccnc1)c1cc2cc([N+](=O)[O-])ccc2oc1=O` was run?
The value was -36.6%.

With `Cn1c(=O)c2c(nc(N3CCCCCC3)n2Cc2cccc3ccccc23)n(C)c1=O` as the compound, how does the “hERG current change (%, negative = inhibition) at 10uM” value read?
Its value is 12.9%.

`COc1ccc(CCNCc2sccc2C)cc1.Cl` was tested. Which “hERG current change (%, negative = inhibition) at 10uM” value did it give?
The value was -19.9%.

Which “hERG current change (%, negative = inhibition) at 10uM” value does the source give for `CCC(C)NC(=O)CS(=O)Cc1nc(-c2cccc(C)c2)oc1C` (centres unmarked) here?
Its value is 12.1%.

How did the “hERG current change (%, negative = inhibition) at 10uM” value turn out when `CCC(C(=O)Nc1ccc(C)cc1)c1ccccc1` (centres unmarked) was run?
The value was 19.1%.

How did the “hERG current change (%, negative = inhibition) at 10uM” value turn out when `[2H]C([2H])(CCOS(N)(=O)=O)c1ccccc1` was run?
The value was 11.1%.

Which “hERG current change (%, negative = inhibition) at 10uM” value does the source give for `c1ccc(C2(Cn3ccc4ccccc43)OCCO2)cc1` here?
Its value is -1.38%.

Which “hERG current change (%, negative = inhibition) at 10uM” value does the source give for `C=CCNC(=S)N/N=C/c1ccc(C)c([N+](=O)[O-])c1` here?
Its value is 12.8%.

`N#CC1(NC(=O)CSc2nc3ccc([N+](=O)[O-])cc3s2)CCCCC1` was tested. Which “hERG current change (%, negative = inhibition) at 10uM” value did it give?
Its value is -69.5%.

With `CCCCC1=CC2=C(c3ccco3)C(=O)C(C)(OC(=O)c3ccc(OC)cc3)C(=O)C2=CN1CC(C)C` (centres unmarked) as the compound, how does the “hERG current change (%, negative = inhibition) at 10uM” value read?
The value was 6.07%.

`COCCN(CCOC)C(=O)COC(=O)c1ccc(Cl)c(S(=O)(=O)N(C)c2ccccc2)c1` was tested. Which “hERG current change (%, negative = inhibition) at 10uM” value did it give?
The value was -48.4%.

With `Cn1nc(C(=O)NCc2ccccc2)cc1C(=O)NCc1ccccc1` as the compound, how does the “hERG current change (%, negative = inhibition) at 10uM” value read?
The value was 9.03%.
